# The other results are listed elsewhere or left out. At the low end of the ranking, values are background and their order means little. Measured with an extract: partners may take part in the binding.
# Target: T1, HNF4alpha8 (COS-7 nuclear extract) (UniProt P41235-5)
# T1 sequence: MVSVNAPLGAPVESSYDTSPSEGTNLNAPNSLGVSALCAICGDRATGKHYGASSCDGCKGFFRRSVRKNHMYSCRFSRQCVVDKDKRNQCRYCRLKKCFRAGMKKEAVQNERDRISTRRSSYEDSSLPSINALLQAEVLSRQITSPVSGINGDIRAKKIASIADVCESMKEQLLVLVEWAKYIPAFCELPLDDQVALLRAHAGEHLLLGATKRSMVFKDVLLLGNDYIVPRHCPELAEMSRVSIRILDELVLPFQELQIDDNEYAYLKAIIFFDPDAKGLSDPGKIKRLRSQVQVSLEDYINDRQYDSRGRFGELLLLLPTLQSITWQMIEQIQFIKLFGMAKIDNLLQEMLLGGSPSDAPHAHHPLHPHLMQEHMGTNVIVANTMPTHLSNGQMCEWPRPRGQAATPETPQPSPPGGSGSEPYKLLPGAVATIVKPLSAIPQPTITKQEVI
# Test: protein-binding microarray
# Details: COS-7 nuclear extract on double-stranded Agilent 4x180k PBM; binding buffer, salt, pH and temperature not given; high values mean tight binding; double strand, one strand shown; sequences stand for … in …GCCTAGGGAGATTAGAGTATCGGTCGA
row,Sequence,binding signal (log2 normalized intensity)
1,ACTGCCTCTTACAACGAGGTGCCAGAAACC,-1.25
2,ACTGCCCTTTGGTGCCTCTTTTTTCTTGTT,2.6
3,TGTGATAGGCATGCAAACTTTGTTTAATGA,0.318
4,CCCGCCTAACCTTGAGGAGCCCTATCCGCA,-1.31
5,TTGTCCAGCAGACACGGGCAGGTGAGAGGG,-1.31
6,TGCTCCACGCAAACACAAAAGGATCACAGT,-1.32
7,TAGACACTGGGGACTAGTAGAGTGGGGAGG,-1.3
8,AGTCTAGATAATCTAAAGCCGAAAGAGGGT,-1.11
9,ACAGCCTTTTGAGTTTCTACCATAGACCCT,0.861
10,GTGGTGGTTCTTGTTTCATTGCACAGTTAC,2.22
11,GCTCGGCCCCAGTCCCCCGGACCAGGCCGG,2.8
12,CCAGAATGTTCAAAAGTGTGTTGGTTTCCT,1.43
13,AAGGTGGTTGCTGTTATCTTCATTTATAGA,0.624
14,TCAGGAAGGAATAAAAGGCTGTTCTGATGC,-1.32
15,AGAAGAAACCTTTGCCCAACAGGATTAGTG,1.37
16,GAGTCTCCACTATGACCTGTGCTTTGCCAT,1.64
17,ACCCGTCCGCTTGATGCCTGTTGCTCAGAA,-1.13
18,TTGGAATACATGGAATGCTCTCTCTCTTTT,0.995
19,ACTTCTCTCGGCCTTAAGAGTCAAAGGGCA,4.56
20,ACCACCTTCCCCCATCCCCAACAAAGCTCT,4.85
21,GGGGCAGAGTGAGCAGCACTTTTGGAGTTT,2.17
22,TAGCCTTTTTGCCCACAGACTAGACCATCA,-1.24
23,CAATTTGATTTGTATGATCTTGGGTATATC,1.49
24,TGTTACCTTTGGACTGTCCTTTGCTAGATT,3.82

row,Sequence,binding signal (log2 normalized intensity)
1,ACAGCGAGAGTCCTCTTGGTTTATGTTCAC,1.15
2,AGTAGTTCTTCTGGTTAGTTTTTCAATGGC,1.86
3,AGAAGCTTGGTATGTCTGATGAATAGAAAG,0.138
4,CTTCTTGTACCTCTGGTGATTACCAGTTAT,1.21
5,AAACCTTATCTATTTGCTCCCAATTTCTAC,1.45
6,ATGTCAACATCAGGGTGCCAGCAGGTGGTC,1.78
7,AATGAGAATGGCCAGAGTTCCTGTGCAAGC,-1.33
8,CCTGTTTTACAGGACATAGTCCTCTGCATA,0.281
9,TTGTTATTTATTGGCCAGTAGCTCTGAGTT,1.28
10,GGCATGAGGTTCTTGTAAGGTTCTTGTATC,1.79
11,GCCCTGCTCAGGGAATGTGGGTCCACATTC,3.18
12,AGTAACCTGACCCCCAGTGGAATGTGCCCT,4.61
13,AAGGCAGAGGAAAGCCCTAGCTGACTGCGT,-1.07
14,TGCCTGAGATTCCTTCAAAGATTGTGAGAC,0.779
15,TCACTGGGAGGGTGGGTTATCAGTAAGAGC,0.0261
16,CTTCAGGTCAAGAGGGCCTCTGCTTGTCTT,0.151
17,CTACTACTTGACCTTTGAAACATATCCAGA,6.31
18,TCACGTGGCCCTGGCATTTGGCTCAAAGGC,-1.38
19,TATCCAGGCCACGCTGCTAATCCTACTTTA,-1.3
20,ATTTTTAGGCTTGTTTATTCAGAGTTAGCT,-1.2
21,ATTGAGATGGTAACCACACCAAGGGGCCCC,-1.29
22,GGTGGACTTTGGCCGTGAAGCCGTCCTGTC,5.87
23,CTAAATGGCAATGGCTGCAGCTCTTCCACG,-1.31
24,CTTTTGTGTGTTTACATAACCTGCCCAAAG,0.458

row,Sequence,binding signal (log2 normalized intensity)
1,CTCAATTATAACTCATGTTCAAACAGTGGT,1.14
2,TTTTGTGTGCTAGATACTGGAGATATGTTG,0.786
3,AATGGCAACATGTGGGCAAATAGGATTAGG,-1.45
4,GCCACTTTCACAAATCATTACTATCTGCTG,-1.33
5,CAGAGGACAGGCTAATGAGATAATGCTGGT,-1.09
6,TAAAACGTGGTTCAGGGAGCGAATAAATAC,-1.18
7,CAACTGGAAGTCCAGCATTCTTTTCCCCAT,1.98
8,GCCCTTTATCTCCTCTCTTCTCACTTTTTA,1.48
9,CTAAGATCCTAGGAGAGCCAAATCTTAAGG,-1.3
10,CCTCAGAACCATTTGTGAGGATGGGCAGTC,0.768
11,GCAGGGAGGACACAGTGTTATTTGCTGAGG,-1.22
12,CACAACAGAAAGCAAGAGCACAAGAACAAA,-1.38
13,TAGGGAAAAGATAAGGCGTAGTTCAGAGAA,-0.929
14,CAGAGGCCAGAAAAGCAAACCGAGATCAAG,-1.41
15,AAGCGTGCACCCCAGGTACGGAGGACAGCC,-1.26
16,CAAGATTCCTTGAGCATTCCAAAAAGCTTT,-1.34
17,GCACCAATGATCAAAGAGACACAATCCCTA,-1.35
18,AAGTGTCTTGGAGAGAAAAAATCAGAGAGC,-1.24
19,TTAGCAGATAAATCTAGGCCTAGGCATTGA,-0.168
20,TTTGGAATTGTGTCACTCCCCAGGAATGTG,2.09
21,GAGGCTGACATCTCTCTGGCCTGTGGGGAG,-1.37
22,TCATGTGAAGACACTGAGGAAAAGCTGTCT,-1
23,ACTTAACTACTACACTAAAAAAAAAAAAAT,-1.41
24,ACTAGCAGATTCTGTGTGGTAAAAGCACTG,-1.12

row,Sequence,binding signal (log2 normalized intensity)
1,ATCGCCTGAATGACCACATGCCCTCAGTAC,2.65
2,CTATAGTTTCTGTTTTGATCTTAAGATGAT,1.74
3,TGTGGGAGGGAAGGAGCCTAACTTTGATAG,-1.41
4,ACAGACAGACATTCAGAAACTGTCACTTAA,-1.32
5,TTTACATAACCTGCCCAAAGTGGGGCTGCT,-1.21
6,GCGGGTGCAGCTTCCACCTGCAAGGAAATA,-1.27
7,TCAGCACTGAGAGATTACATTTGACTGAGG,-1.18
8,CCGTGCCCCCTTTTGCTTTCCGTTAGGCTA,1.13
9,TCACCTTTGCCCTGTCAGTCTCTCAATGAT,4.01
10,AAACGCTCCCAATGGCTCCACCAGTCAGTC,-1.26
11,GGATAACCTTCCAGACAGAGAGGTCAGCAA,1.2
12,GAGAATGCTAGACAAGGGAATTACTCTTCT,-1.3
13,TAGAGCAGCAGTAGGCTCTCGGGCCAGCTG,-1.36
14,CTTGTAAGCCACAGTACAAAGGTGAGCTTT,4.3
15,ATCCTGCAGTTCCTGATCTTTGACCTGGAG,6.23
16,GTTTGTCTTACTGTGTTGTCGTATTTACTC,1.36
17,TGGGACAATGAAGCCTAAATGATAAGGGTT,-0.805
18,GCATTGCCGTTCAGGGCCACGGGAAAACCT,-1.16
19,ATTCATTCACCTTTCGCCCTTTGTCCTATG,5.93
20,GACACGGGCAGGTGAGAGGGCTCTGTCTGC,-1.3
21,GAAAGTACAGTGATGTTTGTCAAATGCTTC,0.496
